Experimental data from the supplement of paper PMC3334620.
The full ranking holds about 33,000 sequences; the median of “E-score (-0.5 to 0.5)” is about -0.01, and the highest 2% start at about 0.26. The list shows a part of the results.

The sequences below were run against Ste12 (UniProt P13574) (assay: PBM E-score (8-mer binding enrichment) (E-score (-0.5 to 0.5)); higher = stronger / more preferred TF binding; most listed sequences are background and not binding sites). Details: protein concentration: 200 nM; construct: GST-DNA-binding domain.
In short: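 Universal all-10-mer Agilent arrays, double-stranded by primer extension on fresh or once-stripped slides, were probed with about 100-200 nM GST-tagged yeast transcription factors made by PURExpress. Fluorescent anti-GST detected bound protein, and masliner normalised the scans. E-scores from the Universal PBM Analysis Suite were given to each ungapped eight-base word pooled with its reverse complement.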

| Sequence | PBM E-score |
| --- | --- |
| TACGGGAA | 0.101 |
| AGGAGTTA | -0.124 |
| CAAGAGGG | -0.125 |
| ATGGATGA | 0.173 |
| GACCACCC | -0.189 |
| TACACGAA | 0.00858 |
| ATCCGTTG | -0.0284 |
| ACCTAGTC | -0.166 |
| AGGGCTAT | -0.264 |
| TCACATCA | 0.257 |
| CCTCATGA | 0.0311 |
| CTCCACAG | -0.187 |
| AATGTCTG | 0.00495 |
| AATCGAGG | 0.108 |
| CGCGATGA | 0.0956 |
| TCCCGTCA | -0.0215 |
| ATTAATCA | 0.145 |
| TCATGACA | 0.178 |
| CCTGAAGA | 0.14 |
| GAACGACC | -0.178 |
| AAAACCGA | 0.115 |
| AGCAGGGA | -0.165 |
| ACAACCAG | -0.153 |
| ATGTACCC | -0.0816 |
| TAAAACGA | 0.134 |

| Sequence | PBM E-score |
| --- | --- |
| AATAGAGT | -0.0744 |
| CAAGTGAG | -0.0337 |
| CAATGTAA | 0.187 |
| CACACACA | 0.118 |
| AGGCACAT | 0.012 |
| CGCATGAA | 0.0861 |
| AGAAGAAC | -0.0218 |
| AATGTATC | 0.168 |
| CTACACGA | 0.0466 |
| AAACATCC | 0.249 |
| ATGGCAAA | 0.14 |
| AACATGAG | 0.0235 |
| CTAACTAG | 0.0938 |
| CCCATCCC | -0.0335 |
| GCGTCGAA | 0.152 |
| CCTGCGAA | 0.0201 |
| CAGCAGAA | 0.0845 |
| ATGGTCAC | 0.0173 |
| CGCGAGAG | 0.0122 |
| ACGGAAAA | 0.177 |
| AACCGGAC | 0.011 |
| CTCACAAC | 0.119 |
| TAATCGGA | 0.0649 |
| ATCCTCGA | 0.0483 |
| CGTTAAGA | 0.0859 |

| Sequence | PBM E-score |
| --- | --- |
| TGTGGTAA | 0.0726 |
| AGTCACAT | 0.0663 |
| AATGGATC | -0.159 |
| GAGATAAA | 0.13 |
| ACCTCAGA | -0.0382 |
| AGGCCGCC | -0.115 |
| ACCGGCCA | -0.0408 |
| GAGATCCC | -0.153 |
| ATAGAGGA | -0.211 |
| AGGCAGTG | 0.0201 |
| ACCTCTCG | -0.127 |
| ATGTAGCG | 0.0619 |
| ACATTCCA | -0.0641 |
| TGCTTCAA | -0.0117 |
| ACCTGCCA | -0.121 |
| GGCTGCAA | 0.173 |
| CCACAGAG | -0.0233 |
| CCAAAACA | 0.233 |
| TCTATGAA | 0.086 |
| ATCCCAGA | -0.238 |
| CGGTACAA | 0.157 |
| AAAATATC | 0.147 |
| AGAATAAC | 0.125 |
| ACCTGAAC | -0.122 |
| GCTGATCC | 0.0347 |

| Sequence | PBM E-score |
| --- | --- |
| AGTCCATG | -0.182 |
| CAACCACC | -0.0591 |
| GGCTCCCA | -0.23 |
| ATGGAGGG | -0.0497 |
| ATTGCCGC | -0.0726 |
| GCCGTCGA | -0.0573 |
| TCACCCAA | 0.171 |
| CGTTCTAA | 0.0856 |
| AAGATGGG | 0.0173 |
| GTGGATAA | 0.0126 |
| GAGGTCGA | -0.0365 |
| AAACAACG | 0.0956 |
| AGGCCTTG | -0.253 |
| AGGCTGGC | -0.0154 |
| CGGTAGAG | -0.232 |
| CGGCCCGC | -0.0395 |
| AGAAGCCT | -0.0396 |
| AGATATAT | 0.152 |
| CCGCCACA | 0.0134 |
| CTTTTTCC | 0.21 |
| ACACTCTC | 0.105 |
| AGCGAAAC | 0.168 |
| CGCCAACC | -0.142 |
| GGTAGAAA | 0.0903 |
| GCATCTCC | -0.0324 |

| Sequence | PBM E-score |
| --- | --- |
| AACACGTC | -0.0569 |
| AGGGTATC | -0.102 |
| AACAACCT | 0.193 |
| AAGATTTA | 0.151 |
| CGCCTAAA | -0.0735 |
| AGGTCAGC | -0.0629 |
| CCCATGCG | -0.114 |
| TATATCAA | 0.14 |
| GCAGCTAC | -0.105 |
| CAAGTTAG | -0.0354 |
| CTCTAAAA | 0.0605 |
| AATACTTG | 0.0737 |
| ATAGATCG | 0.0199 |
| CACGCAGC | -0.104 |
| AGTACGTC | 0.011 |
| GATTTCGC | 0.2 |
| GAGTTTCA | 0.407 |
| CCACGCGC | -0.152 |
| GCGTGTAC | -0.217 |
| CCGTTGTA | 0.0802 |
| AATATCGC | -0.00602 |
| CGCGATTA | 0.177 |
| CCCAAACA | 0.238 |
| AGTGACCC | -0.109 |
| ATTGATCA | -0.0362 |

| Sequence | PBM E-score |
| --- | --- |
| CCAGCTGC | -0.272 |
| GATTTGAC | 0.107 |
| AATCTATG | 0.155 |
| AGCGTGGC | -0.0385 |
| CTGTCGGC | -0.0733 |
| CATAGTTA | 0.0529 |
| ACTTCGCT | -0.0699 |
| ATAAGCTC | -0.0717 |
| ACACGCTG | -0.0247 |
| CGAAACCC | 0.19 |
| CGGAGGTC | -0.036 |
| TACAACGA | 0.0972 |
| CAATTTGA | 0.141 |
| ATAGCCCA | -0.0642 |
| CCCCGCGA | 0.0194 |
| CCCTGACA | -0.0188 |
| GAGGACAA | -0.0381 |
| CAAACTAA | 0.265 |
| AAGGATTC | -0.161 |
| GGGACCAA | 0.00807 |
| GCTCAGCC | -0.189 |
| ACTTGCCC | -0.24 |
| CCTTACAA | 0.0512 |
| AGTAGTAG | -0.0938 |
| AATATACT | 0.13 |

| Sequence | PBM E-score |
| --- | --- |
| GAGGGGCC | 0.0322 |
| CTCCGCCA | -0.0967 |
| CGATCCCG | -0.0144 |
| TATGGTGA | -0.0224 |
| GGGGTTAC | -0.15 |
| CTTGGACC | -0.183 |
| CGGGAATA | 0.109 |
| AGCAGAAC | -0.0673 |
| CGTATTGC | -0.118 |
| ACGTTGGC | -0.0145 |
| GACCATAC | -0.00275 |
| GGCGACCC | 0.0144 |
| CGCTGACC | -0.144 |
| AGTTAAGA | 0.115 |
| AGCACTTG | -0.326 |
| GACTGGTA | -0.0655 |
| AAACGCAG | 0.00077 |
| AAGTTCAG | 0.114 |
| CTAGCACC | 0.0904 |
| ACCTTCCC | 0.102 |
| CAAGTGTA | -0.079 |
| ACAATCCC | 0.164 |
